In all, about 44,000 compounds went through this assay and about 340 (0.77%) were called active. Not shown: some 5% with an inconclusive outcome. The call rests on the fitted dose curve; in most records, active means well fitted inhibition curve with a large enough effect; inconclusive means small, poorly fitted or top-dose-only effect; inactive means flat fitted curve, though single readings scatter. The list shows a part of the results.
Assay: Acumen qHTS Assay for Inhibitors of the mTORC1 Signaling Pathway in MEF (Tsc2-/-, p53-/-) Cells: Sytravon; further: nearly all actives have a fitted effect of over 50% in size;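 on activity change, negative = inhibition: plate controls were DMSO for no effect and rapamycin for full effect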
Details: phospho-rpS6 immunofluorescence/PI, 24 h; series mostly up to 38.3 µM; activity change, negative = inhibition: at the top concentration
In short: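 Tsc2-/-, p53-/- MEFs (empty-vector stable line) in DMEM + 10% FBS were treated with compounds 24 h at 37 degree Celsius, fixed, and immunostained for phospho-rpS6 (Alexa-488) with propidium iodide counterstain. Laser-scanning cytometry gave % positive cells, normalized against 7.5 nM rapamycin and DMSO.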
Potency means the concentration at half of the fitted maximal effect.

Activity change, negative = inhibition, inactive:
Cc1ccc2nc(-c3ccc(Cl)c(NC(=O)COc4cccc(C)c4C)c3)oc2c1 3.86%, Cc1cc2c(cc1NS(=O)(=O)c1ccc(F)cc1)n(C)c(=O)c(=O)n2C -13.5%, CCCc1cc(=O)[nH]c2nnc(SC(C)CC)n12 (configuration not stated) -0.333%, CCOC(=O)c1sc(NC(=O)/C=C/c2ccc(C(C)C)cc2)c(C(=O)OCC)c1C 7.95%, CCc1cccc(C)c1NS(=O)(=O)c1cc2[nH]c(=O)c(=O)[nH]c2cc1C -1.2%, Cc1ccc2nc(N3CCN(c4cccc(C(F)(F)F)c4)CC3)c3nnnn3c2c1 -2.32%, CCN(CC)c1ccc(NC(=O)CCS(=O)(=O)c2cc3c(cc2Cl)NC(=O)CO3)c(C)c1 -0.505%, CCc1nnc(SCC(=O)Nc2ccccc2Cl)nc1CC 0.349%, COCCNC(=O)Cn1nc(C)c2c(C)n(-c3ccc(C)cc3)nc2c1=O 0%, CCc1ccc2ncc3c(-c4ccccc4)nn(-c4ccccc4)c3c2c1 -3.27%, CCc1ccc(NCc2cc3cc4c(cc3n(CC(=O)Nc3cccc(OC)c3)c2=O)OCO4)cc1 -12.5%, Cc1cc(NS(=O)(=O)c2ccc(NC(=O)c3ccccc3C)cc2)nc(C)n1 -3.19%, COc1cccc(NC(=O)CSc2nnc3scc(-c4ccc(Cl)cc4)n23)c1 0.457%, COc1ccc(N(C(=O)c2ccc(OC)c(OC)c2)S(=O)(=O)c2ccc(Cl)cc2)cc1 -5.33%, Cc1ccc(C)c(NC(=O)CC2NCCNC2=O)c1 (configuration not stated) 0.303%, N#Cc1ccccc1Cn1c(=O)n(CCCC(=O)NCc2ccc3c(c2)OCO3)c(=O)c2sccc21 2.83%, Cc1ccc(NC(=O)C2CCCN(c3nnc(-n4c(C)ccc4C)s3)C2)c(C)c1 (configuration not stated) -9.62%, Cc1ccn2c(=O)cc(COc3ccc(NC(=O)COc4ccc(Cl)cc4)cc3)nc2c1 -0.145%, CCCN(CCC)C(=O)Cn1c(=O)n(-c2cccc(OC)c2)c(=O)c2c3c(sc21)CCCC3 -12%, CCCC(C(=O)NCc1cccc(Cl)c1)N1Cc2ccccc2C1=O (configuration not stated) 1.77%, Cc1csc2nc(COC(=O)c3cccc(NC(=O)COc4ccc(Cl)cc4)c3)cc(=O)n12 5.72%, O=C(CCCCn1c(=O)c2ccccc2n(Cc2ccccc2Cl)c1=O)NCCc1ccccc1 0.748%, O=C(CCSCc1cnn(-c2ccccc2)c1-n1cccc1)NCc1ccc(Cl)cc1 -12.6%, Cc1ccc(-n2c(=O)c3c(cnn3C)n(CC(=O)Nc3cc(C)ccc3C)c2=O)cc1 0.358%, Cc1ccc(NC(=O)Cn2cc(C(=O)c3cccs3)c3ccccc32)cc1C -5.05%, Cc1ccc(C(=O)c2cn(Cc3cccc(F)c3)c3nc(C)ccc3c2=O)cc1 -26%

Potency, active:
CC(C)COc1ccc(C(=O)NCC2(N3CCN(C)CC3)CCCCC2)cc1 16.5 µM

From PubChem BioAssay AID493208 (National Center for Advancing Translational Sciences (NCATS), 2011)
